# Reference: PubChem BioAssay AID1768 (National Center for Advancing Translational Sciences (NCATS), 2009)
# “And” between values parts separate entries of the source, which are not always exact repeats. Identical values can stand only once. In all, about 270,000 compounds went through this assay and about 620 (0.23%) were called active. This list was built around the results that the source calls inconclusive (neither active nor inactive); the mix of calls is not that of the screen. Calls come from the whole dose curve; as a rule, active = well fitted inhibition curve with a large enough effect in the polarisation, with a control signal flat (not every such curve was filed as active); inconclusive = small, poorly fitted or top-dose-only effect, or effect the other way, or a change in a side signal; inactive = no such curve, though single readings can be large or run the other way; the % refers to the polarisation. Potencies of inconclusive entries are doubtful fits and often do not repeat. “Side channel” marks fits to a control or component signal instead of the main read-out. More than one record can exist for a structure, and the calls need not agree.
# Target: Menin (Homo sapiens) (UniProt O00255)
# Assay: qHTS Assay for Inhibitors Targeting the Menin-MLL Interaction in MLL Related Leukemias: Competition With Texas Red Labeled MLL-derived Mutant Peptide; for FP activity change, negative = inhibition: % of control where 0% means no effect
# Conditions: fluorescence polarization; series mostly up to 61.6 µM; FP activity change, negative = inhibition: at the top concentration
# Potency is the fitted concentration of half-maximal effect; tags give direction and shape of the fitted curve or compound fluorescence and quenching.
# Chain of UniProt O00255 (O00255 whole entry, looked up): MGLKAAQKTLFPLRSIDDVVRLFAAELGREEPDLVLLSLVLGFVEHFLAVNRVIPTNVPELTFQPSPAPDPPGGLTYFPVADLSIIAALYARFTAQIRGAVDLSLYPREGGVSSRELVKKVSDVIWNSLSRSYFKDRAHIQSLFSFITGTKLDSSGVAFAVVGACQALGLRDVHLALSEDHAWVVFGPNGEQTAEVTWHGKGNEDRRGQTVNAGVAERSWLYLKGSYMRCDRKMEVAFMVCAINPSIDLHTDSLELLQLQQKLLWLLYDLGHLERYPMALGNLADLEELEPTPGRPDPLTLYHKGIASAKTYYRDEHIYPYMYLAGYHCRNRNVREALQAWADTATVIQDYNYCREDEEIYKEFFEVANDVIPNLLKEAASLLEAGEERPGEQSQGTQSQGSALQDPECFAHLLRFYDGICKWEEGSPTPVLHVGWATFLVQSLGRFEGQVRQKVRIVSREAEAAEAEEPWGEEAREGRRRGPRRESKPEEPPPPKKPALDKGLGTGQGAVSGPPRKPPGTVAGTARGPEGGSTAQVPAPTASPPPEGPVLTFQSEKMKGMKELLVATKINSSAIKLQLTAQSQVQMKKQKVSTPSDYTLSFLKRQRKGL
Compound,Potency,"FP activity change, negative = inhibition"
O=C(Nc1ccccc1Cl)Oc1ccc(Cl)cc1Cl,"inconclusive: 39.8 µM [inhibitor, single point]",–
CC(=O)N1CCC2(CC1)CC(=O)c1cc(OCC(=O)N3CCN(C)CC3)ccc1O2,–,inactive: 23.7%
CC1=NN(c2ccccc2)C(=O)C1/C=C1/C(=O)NC(=O)N(c2cc(C)cc(C)c2)C1=O (configuration not stated),"inconclusive: 28.2 µM [quencher, side channel, partial curve]",–
CC(Cc1ccccc1)NC=O (configuration not stated),"inconclusive: 112 µM [quencher, side channel, partial curve]",–
Cc1ccc(NC(=O)COC(=O)/C=C/c2ccco2)cc1S(=O)(=O)N(C)C,"inconclusive: 39.8 µM [quencher, side channel, single point]",–
O=P(OC1CCCCC1)(OC1CCCCC1)C(O)c1c(Cl)cccc1Cl (configuration not stated),"inconclusive: 39.8 µM [inhibitor, single point]",–
Cc1noc(NS(=O)(=O)c2ccc(NC(=O)CCCOc3ccc(Cl)cc3Cl)cc2)c1C,"inconclusive: 17.8 µM [quencher, single point]",–
O=[N+]([O-])c1cc(F)c(N2CCCC2)cc1Br,–,inactive: 9.94%
COc1ccc(C2=NCC(=O)N(CC(=O)NCc3ccco3)c3sc4c(c32)CCCC4)cc1,"inconclusive: 12.6 µM [inhibitor, partial curve]",–
COc1cccc(CCNCc2cccc(C(F)(F)F)c2)c1,"inconclusive: 39.8 µM [fluorescent, side channel, single point]",–
Cc1ccc(C)c(NP(=O)(Oc2ccccc2)Oc2ccccc2)c1,"inconclusive: 15.8 µM [fluorescent, side channel, partial curve]",–
c1ccc(N2CCC3(CCNCC3)CC2)nc1,"inconclusive: 39.8 µM [quencher, side channel, single point]",–
CC(C)c1cc2c(c(O)c1O)[C@@]1(C(=O)O)CCCC(C)(C)[C@@H]1CC2,"inconclusive: 22.4 µM [quencher, side channel, partial curve]",–
CCCC[n+]1cc(/N=C(\[O-])OC)on1,"inconclusive: 8.91 µM [inhibitor, partial curve]",–
CCOC(=O)c1c(C)n(Cc2ccccc2)c2ccc(OCC(O)CNC(C)(C)C)cc12 (configuration not stated),"inconclusive: 2.82 µM [fluorescent, side channel, full curve]",–
O=C1c2cccc3cc([N+](=O)[O-])cc(c23)C(=O)N1c1ccccc1O,"inconclusive: 20 µM [quencher, side channel, single point]",–
Cc1cc(OC(=O)CCCNC(=O)OC(C)(C)C)c2c3c(c(=O)oc2c1)CCC3,"inconclusive: 1.41 µM [inhibitor, full curve, poor fit]",–
c1ccc2c(CN3CCCCCCC3)c[nH]c2c1,–,inactive: 9.23%
c1ccc(CCn2nnnc2CN2CCC(n3nnc4ccccc43)CC2)cc1,–,inactive: -2.19%

Compound,Potency,"FP activity change, negative = inhibition"
CC(=O)[C@H]1CCC2C3CC[C@H]4C[C@H](O)CC[C@]4(C)C3CC[C@@]21C (some centres not stated),"inconclusive: 7.94 µM [fluorescent, side channel, partial curve]",–
CCCCCCCCCOc1ccc2[nH]cc(CCN)c2c1,"inconclusive: 4.47 µM [fluorescent, side channel, full curve, poor fit]",–
C[C@H]1C/C=C/[C@@H]2[C@@H]3O[C@]3(C)[C@@H](C)[C@H]3[C@H](Cc4ccccc4)NC(=O)[C@]32OC(=O)O/C=C/[C@](C)(O)C1=O,"inconclusive: 12.6 µM [inhibitor, single point]",–
Clc1ccc(COC(Cn2ccnc2)c2ccc(Cl)cc2Cl)cc1 (configuration not stated),"inconclusive: 3.55 µM [fluorescent, side channel, partial curve] and inconclusive: 2.24 µM [fluorescent, side channel, full curve, poor fit]",–
COc1ccc2c(c1OC)C(=O)OC2C1c2cc3c(cc2CCN1C)OCO3 (configuration not stated),inactive,–
O=C(c1cc(-c2ccc(Cl)cc2)n(-c2ccc(Cl)cc2Cl)n1)N1CCOCC1,"inconclusive: 17.8 µM [fluorescent, side channel, partial curve]",–
CC1=CC(=O)NP(=O)(Oc2ccc3ccccc3c2)N1 (configuration not stated),–,inactive: 11.3%
CSc1nc(N)c(N=Nc2ccc([As](=O)(O)O)cc2)c(=O)[nH]1,"inconclusive: 22.4 µM [quencher, side channel, single point]",–
CCOC(=O)C(SP(=S)(OC)OC)c1ccccc1 (configuration not stated),–,inactive: -13.6%
O=[N+]([O-])c1cccc(CN2CCN(Cc3ccc(Cl)cc3)CC2)c1,–,inactive: -11.7%
CC(CCC(=O)O)C1CCC2C3CC[C@@H]4CCCC[C@@]4(C)C3CC[C@@]12C (some centres not stated),"inconclusive: 39.8 µM [fluorescent, single point]",–
Nc1ccc2c(c1)Cc1cc([N+](=O)[O-])ccc1-2,"inconclusive: 14.1 µM [quencher, side channel, partial curve]",–
CCCCCCCCCCCCCCCC[N+](C)(C)C,inactive and active: 28.2 µM,–
CN1C[C@H](CNC(=O)OCc2ccccc2)C[C@@H]2c3cccc4c3c(cn4C)C[C@H]21,"inconclusive: 2.51 µM [fluorescent, side channel, full curve] and inconclusive: 8.91 µM [fluorescent, side channel, full curve]",–
CCOc1ccc(-c2nc3ccc(-c4nc5ccc(N6CCN(C)CC6)cc5[nH]4)cc3[nH]2)cc1,"inconclusive: 7.94 µM [quencher, side channel, partial curve]",–
COc1ccc(OC)c(/C=N/OC(=O)Nc2ccc(Cl)cc2)c1,"inconclusive: 39.8 µM [quencher, side channel, single point]",–
Cc1ccc2c(c1)Cc1c(C(=O)NN3CCCCC3)nn(-c3ccc(Cl)cc3Cl)c1-2,–,inactive: -3.66%
CN1CCC(N(C)c2ncnc3ccc(Br)cc23)CC1,"inconclusive: 1.41 µM [inhibitor, full curve, poor fit]",–
